Among all 310,000 compounds or so, about 14,000 (4.5%) showed an effect of 50% or more. The effect is printed as a negative number. Some of the results follow.
What follows are compounds tested against human ether-à-go-go-related gene (hERG) potassium channel (human, UniProt Q12809) (assay: primary screen, population patch clamp on CHO cells stably expressing hERG).
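Also: peak tail current of the secondary pulse compared with the same well before compound.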

human ether-à-go-go-related gene (hERG) potassium channel, sequence (Q12809 whole entry, looked up): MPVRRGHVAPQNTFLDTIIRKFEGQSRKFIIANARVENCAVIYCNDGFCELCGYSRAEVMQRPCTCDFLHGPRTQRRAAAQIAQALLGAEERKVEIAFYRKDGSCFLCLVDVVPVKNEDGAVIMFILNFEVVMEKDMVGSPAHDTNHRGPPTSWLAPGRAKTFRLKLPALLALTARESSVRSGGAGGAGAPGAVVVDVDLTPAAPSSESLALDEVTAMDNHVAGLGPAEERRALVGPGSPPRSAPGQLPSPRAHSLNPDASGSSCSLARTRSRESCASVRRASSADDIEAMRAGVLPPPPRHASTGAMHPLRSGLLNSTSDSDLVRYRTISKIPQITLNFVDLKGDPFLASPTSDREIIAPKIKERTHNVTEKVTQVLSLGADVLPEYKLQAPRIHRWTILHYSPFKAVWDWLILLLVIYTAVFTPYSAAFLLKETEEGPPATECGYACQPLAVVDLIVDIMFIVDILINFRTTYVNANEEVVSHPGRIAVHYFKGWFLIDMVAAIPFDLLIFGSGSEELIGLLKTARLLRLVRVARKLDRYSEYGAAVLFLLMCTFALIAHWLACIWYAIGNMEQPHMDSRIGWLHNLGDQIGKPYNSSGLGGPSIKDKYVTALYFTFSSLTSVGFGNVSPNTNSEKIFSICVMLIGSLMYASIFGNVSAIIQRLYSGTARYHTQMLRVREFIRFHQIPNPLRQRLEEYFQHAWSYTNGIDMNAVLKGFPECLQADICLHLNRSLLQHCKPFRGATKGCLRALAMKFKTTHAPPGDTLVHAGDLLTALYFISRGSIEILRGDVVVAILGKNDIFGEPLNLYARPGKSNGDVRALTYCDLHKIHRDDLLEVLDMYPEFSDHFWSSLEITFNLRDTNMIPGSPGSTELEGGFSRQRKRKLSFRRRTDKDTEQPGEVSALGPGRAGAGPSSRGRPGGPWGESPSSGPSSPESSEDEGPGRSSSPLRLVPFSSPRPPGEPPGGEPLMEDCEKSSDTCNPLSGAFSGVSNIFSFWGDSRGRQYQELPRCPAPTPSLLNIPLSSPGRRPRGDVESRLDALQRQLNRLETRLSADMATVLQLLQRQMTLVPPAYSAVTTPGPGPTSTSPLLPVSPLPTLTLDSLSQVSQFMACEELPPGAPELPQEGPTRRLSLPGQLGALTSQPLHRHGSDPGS

| Compound | hERG current change (%, negative = inhibition) at 10uM |
| --- | --- |
| O=c1[nH]c(=O)n(Cc2ccccc2)c2c1C(C(F)(F)F)(C(F)(F)F)N=C(c1ccco1)N2 | -6.01% |
| O=C(Nc1ccc(Br)cc1)c1ccc(Br)c(S(=O)(=O)Nc2cccnc2)c1 | -3.28% |
| Cc1ccc(N2C(=O)c3ccccc3C2C(=O)c2cc(C)ccc2O)cc1 (centres unmarked) | 5.38% |
| C#CCSc1nnc(CNS(=O)(=O)c2ccc(Br)cc2)n1C | -3.68% |
| Cc1noc(C)c1S(=O)(=O)N1CCN(Cc2ccc3c(c2)OCO3)CC1 | -24.5% |
| Cc1cc(Cl)ccc1OCC(=O)NNC(=O)c1cnccn1 | 11.6% |
| COc1ccc(NC(=O)CCC(=O)N2CCN(S(=O)(=O)c3ccc(C)cc3)CC2)c(OC)c1 | -28% |
| CCOc1ccc(N(C)S(=O)(=O)c2ccc(C)c(C(=O)OCC(=O)c3c[nH]c4ccccc34)c2)cc1 | 6.3% |
| CCOc1ccc(-n2c(=O)c3c4c(sc3n(CC(=O)NCC3CCCO3)c2=O)CCCC4)cc1 (centres unmarked) | 0.791% |
| CC(C)(C)C(=O)NNC(=O)c1ccc(Oc2cc(Cl)cc(Cl)c2)o1 | -4.84% |
| NC1=NC(=O)C(Cc2cccc(Cl)c2)S1 (centres unmarked) | 15% |
| COc1cccc(-c2nn(-c3ccc(C)cc3)cc2C(=O)N2CCc3cc(OC)c(OC)cc3C2)c1 | -31.7% |
| Cc1cc(C(=O)Nc2sc3c(c2C#N)CCC(C)C3)cs1 (centres unmarked) | -2.15% |
| Cc1cc(OCc2cn3cccnc3n2)ccc1Cl | -15.3% |
| CC1CCN(C(=O)CSc2ccc(-c3ccc(F)cc3)nn2)CC1 | -34.5% |
| Cc1cc(=O)[nH]c(N2CCOCC2)n1 | 21.4% |
| Cc1ccsc1C(=O)NC(C)c1ccc2c(c1)OCO2 (centres unmarked) | -11.7% |
| O=C(CCc1nc2ccccc2c(=O)[nH]1)Nc1ccc(Cl)c(Cl)c1 | -4.7% |
| COc1ccc(OC)c(C2N(c3ccccn3)C(=O)C3CCCN32)c1 (centres unmarked) | 11% |
| CC(C)Nc1ccc(C(CC(N)=O)NC(=O)c2ccccc2)cc1[N+](=O)[O-] (centres unmarked) | 6.58% |
| COc1cccc(CN(C(=O)c2cnccn2)C(C(=O)NC2CCCCC2)c2cc(OC)c(OC)c(OC)c2)c1 (centres unmarked) | 2.63% |
| O=C(NCc1cccnc1)Nc1cccc(Cl)c1 | 15% |

| Compound | hERG current change (%, negative = inhibition) at 10uM |
| --- | --- |
| CCc1ccc(N2C(=O)c3cc(N4CCOCC4)c([N+](=O)[O-])cc3C2=O)cc1 | 10.5% |
| CC(C)C(=O)Nc1ccc(C(=O)Nc2ccc(Br)cc2F)cc1 | 13.9% |
| COc1ccc(-c2nc(NC(=O)Cn3ccc(C(F)(F)F)n3)sc2C)cc1 | -2.03% |
| COC(=O)Nc1ccc(S(=O)(=O)N2CCN(C)CC2)cc1 | 3.05% |
| Cc1cc(C)cc(NC(=O)c2cnn(-c3ccccc3)c2C2CCNCC2)c1.Cl | -19.7% |
| CC(=O)c1ccc(NC(=O)COc2ccc3c(c2)OCO3)cc1 | 2.21% |
| Nc1nc(COC(=O)c2ccc3c(c2)OCCO3)nc(Nc2ccccc2)n1 | 10.2% |
| Cc1onc(-c2ccccc2Cl)c1C(=O)NCc1ccc(N2CCCC2=O)cc1 | 6.83% |
| Cc1ccccc1N1C(=O)NC(=O)/C(=C/c2ccc(N3CCOCC3)o2)C1=O | 6.24% |
| CC1CN(C)C(C)C/C1=N\Oc1ccc([N+](=O)[O-])cc1.Cl (centres unmarked) | -78.6% |
| Cc1ccc(S(=O)(=O)c2c(C)nn(C(C)(C)C)c2OC(=O)c2ccco2)cc1 | 3.58% |
| Cc1ccc(-c2cc(-c3ccccc3)[nH]c(=S)c2C#N)cc1 | 23.3% |
| O=C(COc1coc(CN2CCN(c3ccccc3)CC2)cc1=O)Nc1ccccc1F | -3.41% |
| O=C(CSc1ccc([N+](=O)[O-])cn1)Nc1ccc2c(c1)OCO2 | 6.75% |
| Cc1ccc(NC(=O)C(=O)NCC2CCCO2)cc1 (centres unmarked) | 5.47% |
| CCc1ccccc1NC(=O)CN(C)C(=O)CSc1nnc(Nc2ccc(C)cc2)s1 | -0.0116% |
| Cc1ccc(-c2nn(C)c(=O)c3ccccc23)cc1S(=O)(=O)NCCN1CCOCC1 | -2.69% |
| O=C(O)c1cccc(Cn2c(Cl)c(/C=N/NC(=O)c3ccccc3O)sc2=O)c1 | 12.6% |
| COC(=O)c1cccc(NC(=O)CSc2nnc(C3CC3)n2C)c1 | 5.37% |
| O=C(NCCc1ccccc1)C1CCN(S(=O)(=O)c2cccc3nonc23)CC1 | -10.5% |
| O=C(C1=C(O)C(=O)N(CCCN2CCOCC2)C1c1ccccn1)c1cc2ccccc2o1 (centres unmarked) | -1.14% |
| Cc1c(C(=O)OCC(=O)Nc2c(C)n(C)n(-c3ccccc3)c2=O)oc2ccccc12 | -0.217% |

| Compound | hERG current change (%, negative = inhibition) at 10uM |
| --- | --- |
| CSc1ccc(CN2C(=O)NC3(CCCCC3)C2=O)cc1 | 22.6% |
| CCN(CC)c1ccc(/C=N/NC(=O)Nc2nonc2N)cc1 | 2.78% |
| NC(=O)c1cc[n+](Cc2ccc([N+](=O)[O-])cc2)cc1.[Br-] | 10.1% |
| COCCNC(=O)C1CC(c2ccc([N+](=O)[O-])cc2)=NO1 (centres unmarked) | -0.798% |
| CCc1cc2c(SCC(=O)NC(=O)c3cccn3C)ncnc2s1 | 10.5% |
| Cc1ccc(NC(=S)N2CCCC(c3ccccc3)=N2)cc1 | 9.21% |
| O=C(c1ccc(S(=O)(=O)c2ccccc2Cl)c([N+](=O)[O-])c1)N1CCN(Cc2ccccc2)CC1 | -25.3% |
| C=CCNC(=S)Nc1ccc(OC(F)F)c(Cl)c1 | -8.12% |
| Cc1cc(C)n2nc(C(=O)OCC(=O)NNC(=O)c3ccc(Cl)cc3)nc2n1 | 10.6% |
| Cc1ccc(/C=N/NC(=O)CCn2nc(C)cc2C)c(C)c1 | -5.4% |
| CC1=N/C(=C\c2ccc([N+](=O)[O-])cc2)C(=O)N1c1ccc(F)cc1F | 13.1% |
| Cc1ccc(S(=O)(=O)c2c(C)nn(C(C)(C)C)c2OC(=O)c2ccc(Br)o2)cc1 | 7.32% |
| COc1cccc(N2CCN(c3ccc4nnc(CCC(=O)Nc5ccc(OC)c(OC)c5)n4n3)CC2)c1 | -7.55% |
| NC(=O)c1cc[n+](CC(=O)NC(=O)Nc2ccccc2)cc1 | 2.81% |
| CCOc1cc(S(=O)(=O)Nc2ccccc2CC)ccc1Cl | -18.9% |
| O=S(=O)(c1ccccc1)[C@@]1(c2ccccc2)C[C@@H]2ON=C(c3cccc(Br)c3)[C@@H]2C1 | 13.3% |
| CCC(=Nc1ccc2c(c1)CCC2)c1c(O)n(C2CCCCC2)c(=O)[nH]c1=O | -15.8% |
| CCOC(=O)CSc1nnc(NC(=O)c2ccc3c(c2)OCO3)s1 | 7.58% |
| COC(=O)c1ccc(CN2C(=O)c3ccccc3C2=O)o1 | 23.2% |
| Cc1ccc(S(=O)(=O)Nc2cc(C)c(O)c(S(=O)(=O)c3ccc(C)cc3)c2)cc1 | -27.6% |
| Cn1nnnc1SCC(=O)N1CCOCC1 | 16.2% |
| O=C(O[C@@H](C(=O)O)[C@@H](OC(=O)c1ccccc1)C(=O)O)c1ccccc1 | 15.9% |

| Compound | hERG current change (%, negative = inhibition) at 10uM |
| --- | --- |
| CCCCOC(=O)C1[C@H]2C(=O)N(CCc3ccccc3)C[C@]23C=C[C@H]1O3 (some centres unmarked) | 0.875% |
| CCOC(=O)Cc1nn[nH]n1 | 32.3% |
| O=C(c1cccc(Cl)c1)N1CCN(Cc2ccc3c(c2)OCO3)CC1 | -16.6% |
| Nc1nc(Cl)cc(-c2ccccc2)n1 | -4.54% |
| O=C(CNC(=O)c1cccc(Br)c1)N/N=C/c1cccs1 | 11.4% |
| Nc1ccc2c(C(F)(F)F)cc(C(F)(F)F)nc2n1 | 8.38% |
| O=C(CCC(=O)Nc1ccccc1)N/N=C/c1cccnc1 | 11.5% |
| C=CCn1c(SCC(=O)Nc2sc3c(c2C#N)CCC3)nnc1C1COc2ccccc2O1 (centres unmarked) | 4.66% |
| CCn1c2ccccc2c2nnc(SCC(N)=O)nc21 | 4.23% |
| Cc1nc(NC(=O)CSc2nnc(-c3ccncc3)n2C)sc1C | 28.2% |
| CCOC(=O)c1cccc(NC(=O)CSc2nnc(COc3ccc(Cl)cc3)o2)c1 | 16.3% |
| CN1CCN(C(=O)/C(=C/c2ccco2)NC(=O)c2ccccc2)CC1 | -67.6% |
| CCCOC(=O)C1NC(=O)N2C(C(=O)OCCC)C(C)(C)S[C@H]12 (some centres unmarked) | 13.5% |
| O=C(NC1CCCCC1)C(c1ccccc1)N(C(=O)c1csnn1)C1CC1 (centres unmarked) | 8.74% |
| Cc1c(/C=N/NC(=O)c2ccc(Br)o2)cnn1C | 21% |
| CCC(C)(C)NC(=O)C(c1ccc(O)cc1)N(Cc1ccco1)C(=O)CCC(=O)Nc1ccccn1 (centres unmarked) | 9.85% |
| CSc1nc2nc(-c3ccccc3)cc(C(F)(F)F)n2n1 | -3.06% |
| O=C(Cn1nnc2ccccc2c1=O)N1CCOCC1 | -3.77% |
| Cc1cc(C)c(S(=O)(=O)Nc2nnc(C3CCCCC3)s2)c(C)c1 | 9.52% |
| O=C(CCc1ccccc1)Nc1ncc2c(n1)CCCC2=O | -15.6% |
